Here are results for 56 compounds from PMC4336329 (PLoS ONE, 2015).

Screen size: about 310,000 compounds; about 14,000 (4.5%) showed an effect of 50% or more. The effect is printed as a negative number. The list shows a part of the results.
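Further: peak tail current of the secondary pulse compared with the same well before compound.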

human ether-à-go-go-related gene (hERG) potassium channel, sequence (Q12809 whole entry, looked up): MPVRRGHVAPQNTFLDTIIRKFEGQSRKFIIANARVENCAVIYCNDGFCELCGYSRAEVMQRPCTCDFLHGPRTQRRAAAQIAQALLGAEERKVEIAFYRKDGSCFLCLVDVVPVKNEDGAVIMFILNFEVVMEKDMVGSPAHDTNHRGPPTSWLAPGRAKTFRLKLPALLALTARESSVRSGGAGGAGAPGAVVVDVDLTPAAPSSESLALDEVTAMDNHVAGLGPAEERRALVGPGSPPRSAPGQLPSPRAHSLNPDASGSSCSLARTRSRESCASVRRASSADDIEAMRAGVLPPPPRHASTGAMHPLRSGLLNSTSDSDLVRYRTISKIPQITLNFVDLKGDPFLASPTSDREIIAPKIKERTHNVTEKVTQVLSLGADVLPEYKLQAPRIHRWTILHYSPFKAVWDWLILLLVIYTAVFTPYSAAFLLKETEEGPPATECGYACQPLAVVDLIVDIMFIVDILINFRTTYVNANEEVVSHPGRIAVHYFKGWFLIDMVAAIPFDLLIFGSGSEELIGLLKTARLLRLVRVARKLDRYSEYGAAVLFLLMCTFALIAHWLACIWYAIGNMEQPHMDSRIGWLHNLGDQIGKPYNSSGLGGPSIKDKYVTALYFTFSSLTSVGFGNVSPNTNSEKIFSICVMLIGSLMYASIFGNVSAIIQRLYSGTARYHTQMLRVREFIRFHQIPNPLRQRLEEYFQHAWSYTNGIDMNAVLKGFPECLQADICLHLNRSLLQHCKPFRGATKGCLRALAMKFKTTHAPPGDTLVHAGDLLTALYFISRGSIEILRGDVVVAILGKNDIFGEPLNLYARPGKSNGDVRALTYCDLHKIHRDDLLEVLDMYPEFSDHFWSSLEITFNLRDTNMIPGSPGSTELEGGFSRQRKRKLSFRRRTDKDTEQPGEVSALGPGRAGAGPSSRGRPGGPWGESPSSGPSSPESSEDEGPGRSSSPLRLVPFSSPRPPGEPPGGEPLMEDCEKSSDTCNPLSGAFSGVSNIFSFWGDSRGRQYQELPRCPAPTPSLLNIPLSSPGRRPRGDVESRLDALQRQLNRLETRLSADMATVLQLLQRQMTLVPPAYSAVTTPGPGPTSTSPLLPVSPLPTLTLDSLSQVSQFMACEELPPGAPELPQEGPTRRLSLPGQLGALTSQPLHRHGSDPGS

The assay addresses human ether-à-go-go-related gene (hERG) potassium channel (human, UniProt Q12809). Description: primary screen, population patch clamp on CHO cells stably expressing hERG.
For the compound `CN(Cc1ccccc1)S(=O)(=O)c1ccc(Cl)c(C(=O)NCc2cccnc2)c1`, the “hERG current change (%, negative = inhibition) at 10uM” value was -32.8%.
The value for `CCCC(=O)Nc1c2c(nn1-c1cccc(Cl)c1)CS(=O)(=O)C2` was -53.4%; that for `CC(C)(CNC(=O)CNC(=O)C1CCCCC1)N1CCOCC1` was 7.72%.
The value for `COc1ccc(N2CC(C(=O)Nc3ccccc3C(=O)NCc3ccco3)CC2=O)cc1` (centres unmarked) was -42%.
The value for `COc1ccc(C(=O)NCc2ccccc2CN2CCCC2)cc1S(=O)(=O)Nc1ccc(C)cc1` was -57.9%.
Consider `Cc1ccc(-c2nc(-c3ccccn3)no2)cc1Cl`, for which the “hERG current change (%, negative = inhibition) at 10uM” value was -0.62%.
For the compound `O=C(CNC(=O)c1cccc(OC(F)F)c1)Nc1ccc(Cl)cc1`, the “hERG current change (%, negative = inhibition) at 10uM” value is on record as -6%.
Then `O=C1NCN(c2ccccc2)C12CCN(c1nnnn1-c1ccccc1)CC2`, with -11.7%; and `COc1ccc(-n2c(SCC(=O)N3CCN(c4ccccc4)CC3)nc3c(c2=O)SCC3)cc1`, with -70%.
The value for `COc1ccccc1-n1cnnc1SC(C)C(=O)NCC1CCCO1` (centres unmarked) was -3.85%.
The value for `CN(C)CCCN(C(=O)c1ccc2c(c1)OCCO2)c1nc2ccc(Cl)cc2s1.Cl` was -39.9%; that for `Cn1c(=O)[nH]c(=O)c2c1nc(SCC(N)=O)n2Cc1cccc(Br)c1` was -8.92%.
Consider `Cc1ccc(C(=O)Nc2cccc(S(=O)(=O)N3CCCC3)c2)o1`, for which the “hERG current change (%, negative = inhibition) at 10uM” value is -9.98%.
Then `O=C(c1ccccc1)N1CC(COc2ccccc2)OC(c2cccnc2)O1` (centres unmarked), with -5.14%; and `Cc1cc(C)nc(NS(=O)(=O)c2ccc(N3C(=O)c4ccccc4C3=O)cc2)n1`, with 0.252%; and `O=C(c1ccccc1)n1ccn(-c2ccccc2)c1=S`, with -14.9%.
The value for `CC(C)c1cc(N=NC(N)=O)cc(C(C)C)c1O` was 2.84%; that for `CC1CCc2cc(F)ccc2N1C(=O)CSc1nnc(-c2cccs2)n1C` (centres unmarked) was -22.6%; that for `NC(=O)c1c(-c2ccccc2)oc2ccc(O)cc12` was -2.61%.
Then `O=C(N/N=C/c1cccs1)c1cccs1`, with 12.8%; and `COc1cc2c(cc1NC(=O)COc1ccc3ccccc3c1)oc1ccccc12`, with 20.2%.
As for `N/C(=N\OC(=O)C1CCCCC1)c1ccccn1`, the “hERG current change (%, negative = inhibition) at 10uM” value worked out at 8.36%.
The value for `NC(=O)COC(=O)CC(c1ccccc1)c1ccccc1` was 4.16%; that for `Cc1c([N+](=O)[O-])nnn1-c1cc(Cl)cc(Cl)c1` was 2.72%; that for `C/C(=N\N1C(=O)c2ccccc2NC1c1ccccc1)c1ccccc1O` (centres unmarked) was 29.6%.
Consider `Cn1ccc(C(=O)Nc2sc3c(c2C#N)CCC3)n1`, for which the “hERG current change (%, negative = inhibition) at 10uM” value is reported as 16%.
With `Cc1ccc(S(=O)(=O)N(C)CC(=O)OCC(=O)NC(c2ccccc2)c2ccccc2)cc1`, the “hERG current change (%, negative = inhibition) at 10uM” value is 1.8%.
Then `CCCN(CC#CCOc1ccc(OC)cc1)CCC.O=C(O)C(=O)O`, with -25.2%; and `Cn1ccnc1C(=O)c1ccc(NN)c([N+](=O)[O-])c1`, with 11.7%.
Take `NS(=O)(=O)c1ccc(CCNC(=O)COC(=O)Cc2ccc([N+](=O)[O-])cc2)cc1`: the “hERG current change (%, negative = inhibition) at 10uM” value was -30.5%.
With `CC(C)c1ccc(/C=C(/C#N)c2nnc(NC(=O)c3ccccc3)s2)cc1`, the “hERG current change (%, negative = inhibition) at 10uM” value was determined as 7.09%.
As for `COC(=O)[C@H](Cc1ccccc1)NC(=O)N1CCC(C)CC1`, the “hERG current change (%, negative = inhibition) at 10uM” value is recorded as 12.8%.
The value for `O=C(CC1CCCC1)Nc1nnc(C2CC2)s1` was 5.26%.
For the compound `O=C(CS(=O)(=O)c1ccccc1)Nc1ccc(S(=O)(=O)Nc2ccccn2)cc1`, the “hERG current change (%, negative = inhibition) at 10uM” value was determined as 34.3%.
Then `COC(=O)c1sccc1NC(=O)c1ccc(C)s1`, with 17.3%; and `O=C(O)c1cccc(NS(=O)(=O)c2ccc(C3CCCCC3)cc2)c1`, with 14.3%.
The value for `CC(C)[C@H](NC(N)=O)C(=O)Nc1cccc([N+](=O)[O-])c1` was 15.2%.
Then `COc1cccc(NC(=O)Cn2c(=O)oc3ccccc32)c1`, with 7.37%; and `CC1CCN(c2cc(N(C)CCO)c([N+](=O)[O-])c3nonc23)CC1`, with -7.64%.
As to `O=C1NC[C@@H](Cc2ccc(O)cc2)N(CCc2cccc(F)c2)C1=O`, the “hERG current change (%, negative = inhibition) at 10uM” value is given as 16.6%.
The value for `COc1ccc(CCN(Cc2ccccn2)C(=S)Nc2ccc(C)cc2)cc1OC` was -29.5%; that for `O=C(NN1C(=O)C2C3c4ccccc4C(c4ccccc43)C2C1=O)c1ccc(Cl)cc1` (centres unmarked) was -8.19%.
The value for `COc1ccc(-c2c3c(=O)n(C)c(=O)n(C)c3cn2-c2ccc(O)cc2)cc1` was -35.2%; that for `Cc1cc(-c2csc(N)n2)c(C)n1Cc1ccco1` was 18.2%.
The value for `CC(=O)Nc1ccc(S(=O)(=O)NCCC(=O)Nc2ncccc2C)cc1` was 9.81%; that for `CC(=O)c1c(C)[nH]c(C(=O)COC(=O)c2ccc3c(=O)n4c(nc3c2)CCC4)c1C` was -0.297%.
As to `C/C(=N/NC(=O)c1ccc2c(c1)OCO2)c1ccc(NC(=O)c2ccc(F)cc2)cc1`, the “hERG current change (%, negative = inhibition) at 10uM” value worked out at 9.33%.
Consider `O=C1CCC(C(=O)OCc2cc(=O)oc3ccc4ccccc4c23)=NN1`, for which the “hERG current change (%, negative = inhibition) at 10uM” value is reported as -1.4%.
As for `O=C1CS/C(=N\N=C\c2ccccc2Cl)N1CC1CC1`, the “hERG current change (%, negative = inhibition) at 10uM” value was 12.3%.
Take `CCCCn1c(=O)c(C(=O)OCC)c(O)c2ccccc21`: the “hERG current change (%, negative = inhibition) at 10uM” value was 2.18%.
The value for `c1ccc(-c2nc3nc4ccccc4nc3n2Cc2ccco2)cc1` was -61.2%; that for `O=C(NC1CCCC1)c1cccc(S(=O)(=O)Nc2ccccc2F)c1` was -0.783%; that for `CC1CCN(C(=O)C2CCN(C(=O)c3ccc(C(C)(C)C)cc3)CC2)CC1` was -18.6%.
Then `COc1ccc(C(=O)NC(NC(=S)Nc2ccc(S(N)(=O)=O)cc2)C(Cl)(Cl)Cl)cc1` (centres unmarked), with 12.3%.
`Cc1ccc(N(CCC#N)C(=O)COC(=O)c2nc3nc(C)cc(C)n3n2)cc1`: the “hERG current change (%, negative = inhibition) at 10uM” value is 2.88%.
Regarding `CC(=O)NC(CC(=O)Nc1nc(C)cs1)c1ccccc1` (centres unmarked), the “hERG current change (%, negative = inhibition) at 10uM” value was found to be 14.1%.
